Experimental data: PubChem BioAssay AID493208 (National Center for Advancing Translational Sciences (NCATS), 2011)
Out of some 44,000 compounds screened, about 340 (0.77%) were called active. Inconclusive results (about 5%) are left out. Calls come from the whole dose curve; as a rule, active = well fitted inhibition curve with a large enough effect; inconclusive = small, poorly fitted or top-dose-only effect; inactive = flat fitted curve, though single readings scatter. The list shows a part of the results.

Assay: Acumen qHTS Assay for Inhibitors of the mTORC1 Signaling Pathway in MEF (Tsc2-/-, p53-/-) Cells: Sytravon;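 note: plate controls were DMSO for no effect and rapamycin for full effect; nearly all actives have a fitted effect of over 50% in size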
Conditions: phospho-rpS6 immunofluorescence/PI, 24 h; series mostly up to 38.3 µM; activity change, negative = inhibition: at the top concentration
How it was run: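 Tsc2-/-, p53-/- mouse embryonic fibroblasts (empty-vector line) exposed to compound 24 hrs at 37 C, fixed, immunostained for phospho-rpS6 and counterstained with propidium iodide. Acumen laser scanning gives % positive cells from Alexa 488/PI ratio, thresholded using 7.5 nM rapamycin; PI count gives viability.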

Activity change, negative = inhibition, inactive:
Cc1ccc(CSC2=Nc3ccccc3C3=NC(CC(=O)NCc4ccc5c(c4)OCO5)C(=O)N23)cc1 (centres undefined) -1.1%
COc1cc(OC)c(NC(=O)c2ccc3c(c2)N(Cc2ccc(C)cc2)CCS3)cc1Cl -4.83%
Cc1cccc(C2N=C(N)Nc3nc4ccccc4n32)c1 (centres undefined) -14.4%
COc1ccc(CCCc2nnc(SCC(=O)Nc3ccc(C)cc3)o2)cc1C -4.39%
Cc1ccc(-n2ncc(C(=O)NC3CCN(Cc4ccccc4)CC3)c2C2CCN(C(=O)OC(C)(C)C)CC2)cc1C -10.9%
O=C(Nc1ccc2nc(SCC(=O)N3CCCc4ccccc43)sc2c1)c1ccc(Cl)cc1 -1.1%
CCCS(=O)(=O)Nc1cc(-c2cn3ccc(C)cc3n2)ccc1C 2.33%
Fc1ccc(-c2nn(-c3ccc(Cl)cc3)c3c2cnc2ccc(F)cc23)cc1 0%
CCOc1ccccc1NC(=O)Cn1c(=O)n(Cc2cccs2)c(=O)c2cccnc21 -6.72%
CC(Sc1nc(=O)cc(N)n1CCc1ccccc1)C(=O)Nc1cccc(Cl)c1 (centres undefined) -0.569%
COc1ccc(-n2c(=O)c3ccccc3n(Cc3ccccc3Cl)c2=O)cc1 4.95%
COc1ccc(C(=O)Nc2nc3n(n2)C(c2ccc(Cl)cc2)C=C(c2ccccc2)N3)cc1OC (centres undefined) -0.293%
Cc1ccc(C)c(CN2C(=O)c3ccccc3S(=O)c3ccc(C(=O)N4CCOCC4)cc32)c1 (centres undefined) -1.26%
COc1ccccc1N1CCN(S(=O)(=O)c2c(C)sc3ncn(CC(=O)Nc4ccc(C)cc4Br)c(=O)c23)CC1 -1.94%
Cc1ccc(Nc2sc(C(=O)c3ccc(F)cc3)c(N)c2S(=O)(=O)c2ccc(C)cc2)cc1 -17.5%
Cc1ccc(CNC(=O)C2CCCN(c3ncnc4onc(-c5ccc(F)cc5)c34)C2)cc1 (centres undefined) 3.87%
CN1CC(=O)Nc2cc(C(=O)O)ccc21 9.62%
COc1ccc(OC)c(NC(=O)Cn2c(=O)cc(C)c3c(C)nn(-c4cccc(Cl)c4C)c32)c1 -4.9%
O=C(CN1C(=O)CCSc2ccccc21)Nc1ccc(C(F)(F)F)cc1 0.463%
CCOC(=O)c1ccccc1NC(=O)Cn1ccn2nc(-c3ccc(OCC)cc3)cc2c1=O 0%
CCOc1ccccc1C(=O)Nc1ccc(S(=O)(=O)N(Cc2ccccc2)c2ccccc2)cc1 -0.135%
Cc1ccc(-n2cc(C(=O)OCc3ccc(F)c(F)c3)c3ccccc3c2=O)cc1 -6.08%
Cc1ccccc1-c1noc(-c2nnn(-c3ccccc3C)c2N)n1 -6.6%
CCCN1Cc2cccc(C(=O)Nc3ccccc3C(=O)OC)c2C1=O -1.68%
CCOc1ccc(NC(=O)CN2CCN(CC(=O)Nc3ccc(F)cc3F)CC2)cc1 3.69%
COc1ccc(N2CCN(C(=O)c3cnn(-c4ccc(OC)cc4)c3C3CCN(C(=O)OC(C)(C)C)CC3)CC2)cc1 -4.86%
COc1cc(C(=O)N2CCN(C(=O)COc3cccc(C)c3)CC2)cc(OC)c1OC -28.2%
Cc1cccc(C(=O)N(Cc2ccccc2F)C2CCS(=O)(=O)C2)c1 (centres undefined) 2.02%
COc1ccc(Cc2nc3c4cnn(-c5cccc(F)c5)c4ncn3n2)cc1 5.49%
COC(=O)c1c(NC(=O)COc2cccc(C(F)(F)F)c2)sc2c1CCCC2 -2.84%
CCCNC(=O)N1CCCN(S(=O)(=O)c2ccc3c(ccn3CC)c2)CC1 0.0748%
Cc1c(Cl)cccc1-c1ccc(/C=C(\C#N)c2nc3ccccc3[nH]2)o1 -28.8%
CCN(CC)c1ccc(NS(=O)(=O)c2cc(-c3cc(C)no3)ccc2C)c(C)c1 -10.9%
CCOC(=O)c1c(NC(=O)c2ccc(S(=O)(=O)N(CC)CC)cc2)sc2c1CCCCC2 -4%
O=C(Nc1cccc(C(F)(F)F)c1)Nc1ccc2snnc2c1 -21.1%
CCc1nn(CC(=O)NCCOC)c(=O)c2cc3cc(F)ccc3n12 -2.46%
Cc1cc(S(=O)(=O)Nc2ccc(O)c(Sc3nc4ccccc4s3)c2)ccc1Cl -7.38%
CCN(CC)C(=O)CSc1nc2cc3c(cc2c(=O)n1CCCC(=O)NCc1ccc(OC)cc1)OCO3 -8.72%
Cc1ccc(CCNC(=O)CN(c2ccc(C(C)C)cc2)S(=O)(=O)c2c(C)nn(C)c2C)cc1 1.69%
CCn1c(SCC(=O)Nc2c(C)cccc2C)nnc1-c1nonc1NC(C)=O -0.775%
O=C(NCCC1=CCCCC1)c1ccc2c(c1)N(Cc1ccccc1)C(=O)c1ccccc1S2=O (centres undefined) 1.69%
Cc1ccc(C(=O)N2CCCCC2CCN2CCCCC2)cc1 (centres undefined) 5.46%
COc1ccc(-c2csc(-c3c(N)c(C(=O)c4ccccc4)n4ccccc34)n2)cc1OC -4.11%
CCS(=O)(=O)c1cccc(C(=O)Nc2ccc(-c3nc4ccccc4s3)c(O)c2)c1 -6.54%
CCN(CCCNC(=O)c1nn(-c2ccc(OC)c(Cl)c2)c(=O)c2c1c1ccccc1n2C)c1ccccc1 -1.72%
Cc1ccc(CN2CCN(C3CCN(S(=O)(=O)N(C)C)CC3)C(=O)C2=O)cc1 -2.54%
CC1CCN(C(=O)Cn2c(SCC(=O)Nc3ccc(F)cc3)nc3ccccc32)CC1 0%
COc1ccc(OC)c(CNC(=O)CSc2c3c(nc4cc(Cl)ccc24)CCCC3)c1 0.626%
CCN(Cc1ccccc1)C(=O)Cn1c(=O)n(-c2cccc(C)c2)c(=O)c2c1c1cc(OC)ccc1n2C 6.85%
CCOC(=O)C1=C(CN2CCN(C)CC2)NC(=O)NC1c1ccc(F)cc1 (centres undefined) -0.593%
CC(C)c1ccc(OCC(=O)NCC(c2ccc(Cl)cc2)N2CCOCC2)cc1 (centres undefined) -14.1%
CC(C)NC(=O)C1CCN(C(=O)c2cnn(-c3ccccc3)c2-n2cccc2)CC1 1.44%
COc1ccc(N2C(N)=C(C#N)C(c3cc(CN4CCOCC4)cs3)C3=C2CCCC3=O)cc1 (centres undefined) -1.48%
Cc1nc2c(C(=O)NCCc3ccc(Cl)cc3)cnn2c(C)c1Cc1ccc(F)cc1 -2.72%
Cc1ccc(NS(=O)(=O)c2ccc3c(c2)C(C(C)C)C(=O)N3)cc1C (centres undefined) -1.12%
COc1ccc(NS(=O)(=O)c2ccc(-n3cccn3)cc2)cc1OC -17.5%
CNc1nc2c(c(=O)n(C)c(=O)n2C)n1CC(O)COc1ccc(OC)cc1 (centres undefined) 1.38%
CCCSc1nc2sc3c(c2c(=O)n1-c1ccc(C)c(Cl)c1)CCN(C(C)=O)C3 -20.4%
CN(C(=O)c1cc2nc(-c3ccc4c(c3)OCO4)cc(C(F)(F)F)n2n1)c1ccc(OC(F)(F)F)cc1 -2.59%
Cn1nc(C(=O)NCCc2ccc(Cl)cc2)c2c1-c1ccccc1SC2 -1.06%
CSc1nnc2n(-c3cccc(C)c3)c(=O)c3c4c(sc3n12)CCCC4 -0.694%
COc1ccc(S(=O)(=O)c2c(O)c(C)cc(NC(=O)c3ccccc3)c2C(C)C)cc1 -0.912%
COc1ccccc1N1CCN(C(=O)c2ccc(Nc3nc4ccccc4n4nnnc34)cc2)CC1 -0.703%
CCn1c(=O)n(CC)c2cc(N3CCCC3)c(NC(=O)Nc3cc(C)cc(C)c3)cc21 -12.8%
O=C(Nc1ccccc1F)c1oc2ccccc2c1NC(=O)c1c(F)cccc1F -29.7%
Cc1cccn2c(=O)cc(COc3cccc(NC(=O)c4cccc(Cl)c4)c3)nc12 0.628%
Cc1cccc(-c2nnc(SCC(=O)N3CCCCC3)o2)c1 -2.12%
COc1cc(-c2nc(C(N)=O)c3c(n2)n(-c2cccc(C)c2)c(=O)n3C)cc(OC)c1OC 1.28%
CCn1c(CN2CCCCC2)nc2cc(NC(=O)c3cccc([N+](=O)[O-])c3)ccc21 1.76%
Cc1c(C(=O)Nc2cccc(-c3nc4ccccc4s3)c2)oc2ccc(F)cc12 0.992%
Cc1ccc(CNC(=O)c2nn(C)c3c2CSc2ccc(C)cc2-3)cc1 3.39%
Cc1ccc(CCNC(=O)CSCc2nc(-c3ccc(C)cc3)oc2C)cc1 -15.8%
COC(=O)c1ccccc1NC(=O)c1ccc(=O)n(Cc2cccc(C)c2)c1 1.27%
N#Cc1cccc(NC(=O)C2CCN(c3nc(-c4ccc(Cl)cc4)no3)CC2)c1 0%
CCOc1ccc(-c2nnc(SCC(=O)Nc3cc(C)ccc3OC)o2)cc1 -19%
CC(C)c1ccc(NC(=O)Cn2c3ncccc3c(=O)n2-c2ccccc2)cc1 0.913%
Cc1ccccc1NC(=O)C1CCN(S(=O)(=O)c2c(C)noc2/C=C/c2ccco2)CC1 7.34%
COc1ccc(C(=O)NCc2ccc3c(c2)CCN3C(C)=O)c(OC)c1 -3.86%
CCC(=O)N1CCc2cc(CNC(=O)c3cccc(N(C)C)c3)ccc21 -0.183%
COc1ccc(NC(=O)C2CCCN(c3ncnc4onc(C)c34)C2)cc1OC (centres undefined) 0.0765%
CCC(=O)OC1=C(C(C)=O)N(Cc2ccccc2)S(=O)(=O)c2ccccc21 -0.138%
Cc1ccc(Cn2c(SCc3ccc(C(=O)N4CCCCC4)cc3)nc3ccncc32)cc1 -12.3%
CCc1ccccc1N1C(=O)CN(S(=O)(=O)CC)CC1(C)C(=O)NC1CCCCC1 (centres undefined) -0.463%
Cc1ccc(-c2c3c(=O)n(C)c(=O)n(C)c3c3n2-c2ccccc2NC3c2ccc(C)cc2O)cc1 (centres undefined) -13.4%
CCOc1ccc(OCC)c(NC(=O)c2nnn(CC(=O)Nc3cc(Cl)ccc3OC)c2N)c1 -17.1%
COc1ccc(-c2cc(C(=O)N3CCCCC3C)no2)cc1OC (centres undefined) 3.4%
O=C(COc1ccccc1)Nc1nnc(S(=O)(=O)Nc2ccccc2)s1 -13.2%
Cc1ccc(Cl)cc1N1CCN(S(=O)(=O)c2cn(C)c(C)n2)CC1 1.05%
CCOc1ccccc1C1C(C(=O)Nc2ccccc2)=C(C)Nc2nc(SCC(=O)c3ccc(C)cc3)nn21 (centres undefined) -2.8%
CC1CCCCN1CCCNC(=O)CN1C(=O)c2cccnc2Oc2ccc(Cl)cc21 (centres undefined) 0.989%
COc1ccc(C(=O)c2sc3nc4c(c(C(F)(F)F)c3c2N)CN(C(C)=O)CC4)cc1OC 2.1%
CN(C(=O)CSc1nc(-c2ccccc2)no1)c1ccc(F)cc1 -3.63%
CCOc1ccccc1NC(=O)Nc1nnc(N2CCCC(C)C2)s1 (centres undefined) -7.07%
O=C(c1ccc(Cl)cc1)N1CCN(CCc2ccncc2)CC1 -12.1%
